Reference: the supplement of paper PMC11417369
± gives the standard deviation of the averaged measurements. Some of the results follow.

The sequences below were run on PfAP2-I AP2 domain 3 (GST-tagged) (assay: gcPBM binding intensity (ln(normalized median fluorescence intensity)); higher = stronger DNA binding).
Method in brief: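 An Agilent 4 × 180k array of primer-extended double-stranded 36-bp intergenic genomic probes, with negative controls, was incubated for 1 h with GST-tagged P. falciparum DNA-binding domains expressed in E. coli. Alexa488 anti-GST antibody detected bound protein, scanned at 488 nm. Binding intensity is the highest Masliner-normalised natural-log median intensity across replicate spots of either probe orientation.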

In order of falling “gcPBM binding intensity (ln)” value:
1. TTAACAAATAAATGCACACATATATATAAATAATAT [CACACA_site28]  9.52 ± 0.35
2. TTACGAATGAATATATGTACATATATATATATATAT [XGTACX_site3790]  9.46 ± 0.38
3. AATGTACACGCACCCACACACAAACAAATATAAATA [CACACA_site7319]  9.4 ± 0.43
4. AAAATTCATAAATACACACACGCACATATATATATA [CACACA_site4227]  9.36 ± 0.099
5. ATATATATATATATATGTACATAATGCATATAATAT [XGTACX_site6142]  9.25 ± 0.47
6. TATTATGCTATTTAATGTACGGAATTTATATATATA [XGTACX_site564]  8.49 ± 0.56
7. AAGCTTAAAAATGGGGGTACGTCATAGGGATTCAAC [XGTACX_site8080]  8.48 ± 0.33
8. AAAATATATAAACGCACATATATTTATGTATATATA [CACACA_negctrl_site163]  8.42 ± 0.23
9. TAAAAGTTGAAGCACACACACAAAAGAAATACAATA [CACACA_site6649]  8.28 ± 0.28
10. TGCCATCATATCATAGGTACACAAACATATAAAGAA [XGTACX_site4137]  8.22 ± 0.82
11. AAATATATATTCATGTGTACACACAAAAAAAAATAA [XGTACX_site4552]  8.17 ± 0.45
12. TTGCTTTTCATTTATTGTACATACCCAGTAGGATAA [XGTACX_site3939]  8.17 ± 0.41
13. TTTTTTTTTTTTTATTGTACATACTTTTAAATATAT [XGTACX_site4303]  8.16 ± 0.6
14. TATGAAAAGTAAAGTACACACAGGAAAAAAAAAAAA [CACACA_site1749]  8.16 ± 0.83
15. TTATGCTCAAAGAAAAGTACATAAATAAAAGTATAT [XGTACX_site7365]  8.13 ± 0.25
16. ATAAATAAAGGACACACACACACACTAATAAAAAAA [CACACA_site8840]  8.11 ± 0.27
17. ATATGTTTTAAGTGTACACATATAATGTATTTTGTT [CACACA_site4929]  8.11 ± 0.45
18. TTAATACTTTTTTCTGTACACACTTGATTTACTATA [CACACA_site2799]  8.09 ± 0.57
19. TAAACACCCATACATACACACATACATACACCCATA [CACACA_site5125]  8.08 ± 0.2
20. TTTGTTATATTTAATACACACATATTATAAACACAT [CACACA_site7703]  8.07 ± 0.34
21. GTATTATATTTTAATACACACCCAAATATTAAAAAG [CACACA_site8968]  8.01 ± 0.5
22. TATATAATATATTTATGTACTCACAATGGGGTCTAC [XGTACX_site2691]  8 ± 0.31
23. AATATATAAACATATACACACAAAAACATATATATA [CACACA_site4855]  7.98 ± 0.75
24. GACATAGTATTAAGTTGTACATATATAAAAATAAAT [XGTACX_site1583]  7.98 ± 0.13
25. AAAAATTTTCAAGTGTGTACATATTTTCATTTAACA [XGTACX_site6186]  7.96 ± 0.42
26. AGTTTAATTTTGTATACACACATTTGAATTATTAAT [CACACA_site7625]  7.92 ± 0.71
27. CATACATATACTTTGTGTACATATATATATTATATA [XGTACX_site97]  7.88 ± 0.16
28. TTGCTCATTGAAATTATACACACCAAATATATAAAT [CACACA_site2482]  7.88 ± 0.4
29. TTCTTCAATATATTCTTACACACTTAAAAAAAAAAA [CACACA_site228]  7.86 ± 0.54
30. TATATGTAGATTAAACGTACTTACAACGGAATTATC [XGTACX_site3036]  7.85 ± 0.61
31. CAAAAATAAAAGAAATGTACAAAAAATAATAAAAAA [XGTACX_site6597]  7.84 ± 0.76
32. TTAAAGCTTGCATATACACACATACATAAATTCATA [CACACA_site7208]  7.83 ± 0.61
33. GTTCATATAATAAAATGTACATAATATATTATATAT [XGTACX_site7623]  7.76 ± 0.45
34. TATCTCCACAAAAGATGTACTCATATTAATTTATAA [XGTACX_site3535]  7.75 ± 0.26
35. ATGTTTTCAAAAATAAAACATATAAATAAATAAATA [TGCATGCA_negctrl_site226]  7.75 ± 0.7
36. GTATACAACATATGAACACACAAAATATTTTTTTTT [CACACA_site2928]  7.74 ± 0.42
37. TAATAAAAAATTAAAAAAAATAAAAATAAAAATAAA [GTGCAC_negctrl_site78]  7.73 ± 0.58
38. ATATATTTATATTTTTGTACCCAAAATTGTTTGATG [XGTACX_site3581]  7.72 ± 0.49
39. TTTATACTTTTAAATTGTACTATAAAAAGGAATACA [XGTACX_site2537]  7.71 ± 0.42
40. TTATTAGAGATGTTAAGATATAGGGATAATTTCGAT [XGTACX_negctrl_site395]  7.69 ± 0.69
41. TTATAATACCTACAAAGTACAAACTTAAATATGAAC [XGTACX_site5684]  7.68 ± 0.39
42. CAACAACAAATGAGAAGTACATAAATATTAACAATA [XGTACX_site4625]  7.68 ± 0.4
43. AAATGTTCAGAAACTATTATAAAAATGGAATAATAT [CACACA_negctrl_site1544]  7.67 ± 0.68
44. TATATCTATTTCAAATGTACTTATATGATTCTTATA [XGTACX_site6277]  7.67 ± 0.2
45. TTTTTATTTAGCTAAGCATGCTAACGATGACACTTC [TGCATGCA_site79]  7.65 ± 0.71
46. AAAAGGGAAAAAATTAAAATTATATATATATATATG [CACACA_negctrl_site137]  7.62 ± 0.71
47. TAAATATTATATTTATGTACATAAGTTTTTTTTAAT [XGTACX_site3559]  7.59 ± 0.2
48. AAGAAAAAGTATCCTCTATCTTTATATAAACTATTA [TGCATGCA_negctrl_site2]  7.58 ± 0.57
49. CTTAATATGGATATTGCATGTAGAACATGAACAATA [TGCATGCA_site760]  7.58 ± 0.65
50. AAATTACTGTAAAAAAGTACAGAAGTTCTTATTTTT [XGTACX_site7416]  7.57 ± 0.43
51. TAAAAAAAAACATGATGTACATAAAATTTTTTACTT [XGTACX_site7056]  7.54 ± 0.53
52. AACCTATCTATAGGAACAATATATATATATATAATT [CACACA_negctrl_site1707]  7.51 ± 0.63
53. ATGTATATATTTTTATGTACATATTTTTAATTTATA [XGTACX_site2982]  7.47 ± 0.18
54. TTTGACACAATATTTTGTACGAAACTATTAATTCAA [XGTACX_site4853]  7.47 ± 0.58
55. AGCTACAAAAATTAATATATATATGTATAGTTATAC [TGCATGCA_negctrl_site531]  7.38 ± 0.59
56. GAAGGAAAAGATACGATAAAATAAGATATTAATTTA [GTGCAC_negctrl_site419]  7.28 ± 0.73
